Assay results reported in PubChem BioAssay AID1794842 (National Center for Advancing Translational Sciences (NCATS), 2023).
Out of some 2,800 compounds screened, fewer than 10 were called active. The call rests on the fitted dose curve; in most records, active means well fitted curve in the direction sought with a large enough effect; inconclusive means small, poorly fitted or top-dose-only effect, or another doubt; inactive means no such curve, though single readings can be large or run the other way. The list shows a part of the results.

target: Metallo-beta-lactamase type 2 (Klebsiella pneumoniae) (UniProt C7C422); test: qHTS to identify inhibitors of the New Delhi Metallo-beta-lactamase (NDM): Meropenem screen against the machine-based learning selections.; further: % of control where 0% means no effect; conditions: Purified NDM-1, meropenem hydrolysis, absorbance 300 nm; at 38.4 µM (top of the series) unless noted
Sequence of UniProt C7C422 (C7C422 whole entry, looked up): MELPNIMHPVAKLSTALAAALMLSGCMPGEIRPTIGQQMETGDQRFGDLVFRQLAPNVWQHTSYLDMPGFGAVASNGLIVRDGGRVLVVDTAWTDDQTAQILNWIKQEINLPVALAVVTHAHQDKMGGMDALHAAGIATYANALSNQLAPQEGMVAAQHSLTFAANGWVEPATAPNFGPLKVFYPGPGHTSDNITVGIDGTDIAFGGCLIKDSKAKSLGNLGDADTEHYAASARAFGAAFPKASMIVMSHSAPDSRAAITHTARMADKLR
How it was run: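 NDM-1 (2 nM final) in 50 mM HEPES pH 7.0, 1 uM Zn2SO4, 0.01% Tween20 was preincubated with compounds for >30 min. Nitrocefin (16.7 uM final) was read at 485 nm after 15 min, and meropenem (50 uM final) at 300 nm after 30 min.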

Activity change, negative = inhibition, inactive:
NC(=O)C1CCC(=O)N1C1CCNCC1 (stereo not given) -0.0837%, Cn1nc(C(=O)Nc2ccc3c(c2)C(=O)N2CCC[C@H]2C(=O)N3)c2ccccc21 3.53%, CCCCCC(=O)Nc1nc2c(s1)C[C@@H]1[C@](C)(CO)[C@H](O)CC[C@@]1(C)[C@@H]2CC(=O)NCc1ccccc1 0.525%, O=c1cc(-c2ccccn2)oc2c(-c3cccc(CO)c3)nccc12 19.2% [at 57.5 µM], C[C@@H]1CN(c2cc(C3CC3)ncn2)C[C@@]1(O)C1CCC1 3.45%, Cn1ccc2c(C(=O)NCc3cccnc3)nc(-c3cccc(O)c3)cc21 1.23% [at 57.5 µM], O=C(Nc1ccc(F)cc1)Nc1cccc(-c2ccc(N3CCOCC3)nn2)c1 7.76%, Cc1ccc(-c2noc([C@@H]3Cc4nc[nH]c4CN3C(=O)CCC(=O)O)n2)cc1 14.5% [at 57.5 µM], Cc1nc([C@@H]2CN(S(=O)(=O)c3ccc4c(c3)CCC4)C[C@H]2C(N)=O)n[nH]1 -0.16%, O=C(c1ccccc1F)N1CCCC(c2nn[nH]n2)C1 (stereo not given) -0.378%, CC1=C[C@@H](CNCCN(C)C)[C@H](C(C)C)C[C@H]1Cc1nnc(-c2ccc(C)cc2)o1 -3.5% [at 57.5 µM], CN(C)C[C@@H]1CN(Cc2ccccn2)C[C@H]1NS(=O)(=O)c1cccc(C#N)c1 8.54%, OC[C@@H]1O[C@H](CNCc2ccc(F)cc2)[C@H](N2CCN(c3ccccc3)CC2)[C@@H]1O 61.8%, O=C(c1nc2ccccc2[nH]1)N1CCNc2cnc(Nc3ccc(-n4ccnc4)cc3)nc2C1 37.1%, O=C(NC1CCCc2nc(N3CCC(CO)CC3)ncc21)c1ccccn1 (stereo not given) 2.04%, COc1ccccc1-c1cc(C(=O)NC(C)C)c2cnn(C)c2n1 3.23% [at 57.5 µM], CC1=C[C@@H](CN(C)CCN(C)C)[C@H](C(C)C)C[C@H]1Cc1nnc(-c2ccccc2)o1 1.96% [at 57.5 µM], CCN(CC)C(=O)[C@@H]1CCC[C@@H](NC(=O)Nc2c(C)noc2C)CN(C)C(=O)C1 -0.0378% [at 57.5 µM], COc1ccc(Nc2cc3c(cn2)CN(CCc2ccccc2)CCN3)cc1 -0.503% [at 57.5 µM], OC1(CN2CCN(c3nccs3)CC2)CCCNC1 (stereo not given) 75%, Cc1cc(C)c(CNC(=O)c2nc(-c3cccc(O)c3)cc3[nH]ccc23)c(=O)[nH]1 15.9% [at 57.5 µM], CC(C)CN1C(=O)COC[C@@H]1[C@H](O)c1ccc(NC(=O)C2CCCC2)cc1 0.319% [at 57.5 µM], Cc1ncsc1CCC(=O)N[C@@H]1CCOC[C@H]1OCC(=O)O 24.4%, COc1ccc(CN2CCCC(CO)(CC3CC3)C2)c(F)c1 (stereo not given) 2.29%, CC1=C[C@@H](CNc2ccccn2)[C@H](C(C)C)C[C@H]1Cc1nnc(-c2ccc(C)cc2)o1 4.8% [at 57.5 µM], C=CCC1(C(=O)O)CCCN(Cc2cnc(NCc3ccccc3)nc2)C1 (stereo not given) -1.54%, CCn1cc(-c2ccc(OC)cc2)cc1C(=O)N1CCCCCC1 6.42%, COCc1cc(C[C@@H]2CC[C@H](O)[C@@H](CNS(=O)(=O)c3ccccc3)O2)no1 1.18% [at 57.5 µM], Cc1cc(C(=O)N[C@@H]2C[C@H](Cn3cc(CN4CCS(=O)(=O)CC4)nn3)[C@@H](O)[C@H]2O)nn1C 40.9%, O=C([C@@H]1C[C@H](Oc2ccccc2)CN1C(=O)c1cccs1)N1CCOCC1 -0.949%, CCc1c(C)nn(CC(=O)N2CCC3(CCNC(=O)CC3)CC2)c1C 0.461%, O=C(O)c1ccc(CC2CCN(C(=O)c3cccc(-n4cccn4)c3)C2)cc1 (stereo not given) -3.18%, Cc1nn(C)c(C)c1CCC(=O)N[C@@H]1CN(c2ncccn2)C[C@H]1CO 1.46%, CCCn1ccc2oc(C)c(C(=O)NCc3ccc(OC)cc3)c2c1=O 3.75%, O=C(NCc1cccc(F)c1)c1cnc2c(c1)N(C(=O)Cc1ccc(O)cc1)CCC2 -3.34% [at 57.5 µM], CC(=O)N1CCN([C@H]2[C@@H]3OC[C@@H](O3)[C@@H](NCc3ccco3)[C@@H]2O)CC1 5.36% [at 57.5 µM], Cc1ccnc(N2CCC(c3nnc(-c4ccc(F)cc4)o3)CC2)n1 1.88%, O=c1cc(-c2ccccn2)oc2c(NCc3ccc(F)cc3)nccc12 8.87% [at 57.5 µM], CCn1nccc1C(=O)NCc1cc(C)cc2c(C)c(-c3ccccc3)[nH]c12 5.32%, C[C@@H](c1ccccc1)N1C(=O)[C@@H]2CN(C(=O)c3ccc(N(C)C)cc3)CCN2C1=O 17.9% [at 57.5 µM], Cn1ccnc1C(=O)N1CC(c2noc(C3CCCN3CC3CC3)n2)C1 (stereo not given) 0.0609%, Cc1cccc(Nc2nc(N)nc(CN3CCOCC(O)C3)n2)c1 (stereo not given) 28.8%, COCCN1CC2(CCCN(C(=O)CCc3cccc(F)c3)C2)CCC1=O (stereo not given) 3.45%, COc1ccccc1C(=O)N1CC[C@H]2COC(=O)N2c2cc(C)ccc2C1 2.81% [at 57.5 µM], COc1ccc(CN2CCN(c3nc4ccccc4o3)CC2CCO)cc1C (stereo not given) 0.951%, CS(=O)(=O)c1ccc(CNC[C@H]2Cn3ccnc3CO2)cc1 -1.46% [at 57.5 µM], O=C(NC(c1ccccc1)c1ccccc1)c1cnc2c(c1)N(C(=O)Cc1ccc(O)cc1)CCC2 1.04%, O=C(NC1CCCCC1)N1C[C@@H]2C[C@H](C1)c1c(NS(=O)(=O)c3cccc(F)c3)ccc(=O)n1C2 -0.314%, CC(=O)N1CCC(Oc2ccccc2-c2nc(-c3ccccc3)no2)C1 (stereo not given) -2.41%, O=C(N[C@H]1[C@H](O)[C@H](O)C[C@@H]1c1cccnc1)c1ccccn1 0.957% [at 57.5 µM]
